Measurements as given in article PMC4336329 (PLoS ONE, 2015).
Screen size: about 310,000 compounds; about 2,200 (0.71%) showed an effect of 50% or more. The effect is printed as a negative number. The list shows a part of the results.

Biological target: human ether-à-go-go-related gene (hERG) potassium channel (human, UniProt Q12809)
Test: primary screen, population patch clamp on CHO cells stably expressing hERG

human ether-à-go-go-related gene (hERG) potassium channel, sequence (Q12809 whole entry, looked up): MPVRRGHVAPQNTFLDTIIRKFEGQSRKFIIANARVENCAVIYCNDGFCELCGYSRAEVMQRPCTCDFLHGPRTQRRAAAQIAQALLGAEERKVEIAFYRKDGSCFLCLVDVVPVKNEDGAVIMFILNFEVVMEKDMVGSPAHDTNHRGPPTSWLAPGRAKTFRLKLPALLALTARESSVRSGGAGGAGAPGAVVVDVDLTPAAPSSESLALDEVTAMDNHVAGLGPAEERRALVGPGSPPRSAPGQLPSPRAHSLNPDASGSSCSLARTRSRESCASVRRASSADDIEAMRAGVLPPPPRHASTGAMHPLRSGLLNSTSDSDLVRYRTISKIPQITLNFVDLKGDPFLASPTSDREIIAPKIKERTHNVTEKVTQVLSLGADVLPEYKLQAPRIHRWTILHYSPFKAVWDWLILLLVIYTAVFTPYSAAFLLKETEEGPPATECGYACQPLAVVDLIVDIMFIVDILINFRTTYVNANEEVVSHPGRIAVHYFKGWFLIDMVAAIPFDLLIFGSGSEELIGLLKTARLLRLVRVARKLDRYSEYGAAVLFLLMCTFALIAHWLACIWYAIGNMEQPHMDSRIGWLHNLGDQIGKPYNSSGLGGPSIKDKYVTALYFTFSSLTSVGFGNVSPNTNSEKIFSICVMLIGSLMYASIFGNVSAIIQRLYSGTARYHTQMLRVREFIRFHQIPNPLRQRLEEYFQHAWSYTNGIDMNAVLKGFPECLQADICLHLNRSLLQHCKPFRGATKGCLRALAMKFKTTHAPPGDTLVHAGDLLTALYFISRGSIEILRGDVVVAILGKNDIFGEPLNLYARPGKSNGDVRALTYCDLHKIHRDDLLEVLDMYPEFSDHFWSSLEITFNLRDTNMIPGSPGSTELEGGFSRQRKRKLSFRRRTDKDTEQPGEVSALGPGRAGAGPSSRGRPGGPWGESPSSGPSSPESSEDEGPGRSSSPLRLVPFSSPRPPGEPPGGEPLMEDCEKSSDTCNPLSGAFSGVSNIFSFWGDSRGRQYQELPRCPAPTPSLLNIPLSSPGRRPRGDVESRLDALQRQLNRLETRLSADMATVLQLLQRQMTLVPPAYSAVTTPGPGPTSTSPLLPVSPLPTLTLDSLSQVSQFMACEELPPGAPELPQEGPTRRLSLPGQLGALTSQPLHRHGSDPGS

SMILES	hERG current change (%, negative = inhibition) at 1uM [%]
C/C(=N/NC(=O)c1ccncc1)c1cc2ccc(O)cc2oc1=O	12.9
Cc1nnc(SCC(=O)Nc2ccc(Cl)cn2)[nH]c1=O	11.9
COc1c(Cl)cc(Cl)cc1C(=O)Nc1ccc(CN2CCOCC2)cc1	14.4
O=C(c1cc(Sc2ccc(Cl)cc2)nc2ccccc12)N1CCN(c2ccccn2)CC1	11.2
Cc1nc2sc(C#N)c(N)c2c2c1CCCC2	-6.38
CCC1(C)NC(=O)N(CC(=O)Nc2sc3c(c2C(N)=O)CCC3)C1=O (centres unmarked)	8.18
O=C1CN(C(=O)COC(=O)c2ccc(N3CCCCCC3)c([N+](=O)[O-])c2)c2ccccc2N1	11.7
CC(C)Oc1ccc(C(=O)NCc2cccs2)cc1	-2.12
C=CCn1c2ccccc2c2n[nH]c(=S)nc21	9.36
COc1ccc2oc(C(=O)NCC(c3ccco3)N(C)C)c(C)c2c1 (centres unmarked)	0.59
Cc1noc(/C=C/Nc2ccc(F)cc2F)c1[N+](=O)[O-]	10.4
CCCCc1cc(C)c(S(=O)(=O)c2ccccc2C)c(=O)[nH]1	11.6
CCOC(=O)c1[nH]c(CSc2nnnn2-c2ccccc2C)c(C(=O)OCC)c1C	8.94
CC1=NN(c2ccc(N)cc2)C(=O)C1.Cl	6.79
NC(=O)c1ccc(NC(=O)c2cccc3c2OCCCO3)cc1	5.36
COc1ccc2nc(N3CCCC(C(=O)NCCCN4CCN(C)CC4)C3)sc2c1 (centres unmarked)	11.1
CN1CCN(NC(=S)NC2CCCC2)CC1	13.2
COc1cccc(C(=O)CSc2nnc(CNc3nc(-c4ccccc4)cs3)n2C)c1	11.1
COc1ccc(S(=O)(=O)N2CCCC(C(=O)NCc3cccnc3)C2)cc1OC (centres unmarked)	-6.91
COc1ccc(CN2CCNC(=O)C2CC(=O)N(C)Cc2nc(C)cs2)c(OC)c1 (centres unmarked)	10.9
COc1ccc(S(=O)(=O)Nc2nc(C(F)(F)F)cs2)cc1	11.1
O=C(CCc1c[nH]c2ccccc12)NCc1ccc2c(c1)OCO2	3.27

SMILES	hERG current change (%, negative = inhibition) at 1uM [%]
COc1ccc(N=C2SC(CC(=O)Nc3ccccc3F)C(=O)N2Cc2ccco2)cc1 (centres unmarked)	11.8
Cc1ccc(CN2CCNC(=O)C2CC(=O)N(Cc2c(C)nn(C)c2C)C2CC2)o1 (centres unmarked)	9.37
CC12CCC(=O)N1C(C(=O)NNC(=O)COc1cccc(C(F)(F)F)c1)CS2 (centres unmarked)	15.2
O=C(NC(=S)NNC(=O)c1ccccc1O)c1ccc([N+](=O)[O-])cc1	5.78
CC1CCCN(C(=O)CN(C)S(=O)(=O)c2ccc3c(c2)c(=O)n(C)c(=O)n3C)C1 (centres unmarked)	4.82
CCc1noc(C)c1C(=O)N1CCCC(CCC(=O)NCc2ccc(F)c(F)c2)C1 (centres unmarked)	-2.87
CC1(C)Cc2c(ccc3ccccc23)-c2nnc(-c3cccnc3)n21	2.73
CC(C)C(NC(=O)C1CCCCC1)C(=O)NC1=NCCS1 (centres unmarked)	13
Cc1c(NC(=O)CSc2nnc(-c3cccc(Cl)c3)o2)c(=O)n(-c2ccccc2)n1C	9.8
COc1ccc(C(=O)COC(=O)CCc2nc3ccccc3[nH]c2=O)cc1Br	15.7
COC(=O)c1sccc1-n1cccc1C(=O)NCc1ccccc1	4.36
CNC(=S)Nc1ccc(OC(F)(F)F)cc1	11
C=CCNC(=S)NC(=O)c1oc2ccccc2c1C	13.7
CC(C(=O)N(C)C1CCCCC1)N1CCC(C(N)=O)CC1 (centres unmarked)	15.1
Nc1ccc(-c2cc(N)n(-c3ccccc3)n2)cc1	3.03
O=C(N/C(=C/c1cn(-c2ccccc2)nc1-c1ccccc1)C(=O)N1CCOCC1)c1ccccc1	3.27
COc1ccccc1Nc1nc(N)nc(CSC(=S)N2CCN(c3ccccc3)CC2)n1	6.01
CCCn1c(C2CCCN2c2nc(-c3ccc(OC)cc3)cs2)nc2ccccc21 (centres unmarked)	17.7
CC(=O)Nc1ccc(S(=O)(=O)N(CCO)Cc2ccccc2)cc1	11.8
O=C(NC(=S)NCCc1ccc(Cl)cc1)c1ccco1	19
COC(=O)C1=C(c2c(C)noc2C)C[C@@H]2CC[C@H]1N2C(=O)N1CCC(C)CC1	0.981
COc1cc(CNC(C)C23CC4CC(CC(C4)C2)C3)ccc1OCC(=O)NC(C)(C)C.Cl (centres unmarked)	14.3
